Experimental data as given in publication PMC6426988, “Seeding selectivity and ultrasensitive detection of tau aggregate conformers of Alzheimer disease” (Acta Neuropathologica, 2018).

Target: the molecule itself
Experiment: co-sedimentation; products of AD RT-QuIC reactions (τ306:K19CFh 1:3, 12 µM total, 10 mM HEPES pH 7.4, 400 mM NaCl, 40 µM heparin, 10 µM ThT, 37 °C, shaking; seeded with sAD or fAD brain homogenate) collected after 20 h, centrifuged at 20,800×g, washed pellet compared with input and supernatant by SDS-PAGE and GelCode Blue stain

B1: τ306 (tau […], htau40 numbering, cysteine 322 to serine) (domain or fragment)
chain: not shown
notes: stop codon added at residue 379; numbers count on: full-length human tau isoform htau40 (longest human isoform); Cloned into pET-28a right after the N-terminal poly-histidine tag and thrombin site; also called tau306; source: E. coli BL21(DE3), purified (His-Trap FF, acetone precipitation, 8 M GdnHCl, PD-10 desalting); not shown: poly-histidine, N-terminal, kept
B1: binds.
